Structures can show the parent of a compound that is named as a salt. This is one part of the list. Single values of this set are uncertain. Values with irradiation are relative to irradiated vehicle.
What follows are compounds tested on A549-Dual (assay: NF-kB reporter (SEAP) activity, viability-corrected, relative to vehicle (fold change vs vehicle); higher = more activation of STING-IRF / NF-kB immune response reporter). Settings: 10 µM; irradiation: 8 Gy/4 fr.
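Note: viability correction based on the alamar blue assay, with concentrations leaving 10% survival or less dropped.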

SMILES	NF-kB reporter
COc1ccccc1OCC(O)CN1CCN(CC(=O)Nc2c(C)cccc2C)CC1 (stereo not given) [Ranolazine]	0.644
Cc1ncc(COP(=O)(O)O)c(C=O)c1O [Pyridoxal phosphate]	0.864
COc1cc([N]([Na])S(=O)(=O)c2ccc(N)cc2)nc(OC)n1 [SulfadiMethoxine sodium]	0.877
C1CCN2CC3CC(CN4CCCCC34)C2C1.O.O.O.O.O.O=S(=O)(O)O (single isomer, unassigned; (-)) [(-)-Sparteine Sulfate]	1.04
CN1CCc2cc3c(cc2C(=O)Cc2ccc4c(c2C1)OCO4)OCO3 [Protopine]	0.94
CC1(C)SC2C(NC(=O)C(N)c3ccc(O)cc3)C(=O)N2C1C(=O)O (stereo not given) [Amoxicillin]	0.842
CCNC1CN(CCCOC)S(=O)(=O)c2sc(S(N)(=O)=O)cc21 (stereo not given) [Brinzolamide]	0.921
CNC(=O)c1cnn(-c2nc(N)c3ncn(C4OC(CO)C(O)C4O)c3n2)c1 (stereo not given) [Regadenoson]	0.721
O.O.OCC1OC(OC2OC(CO)C(O)C(O)C2O)C(O)C(O)C1O [D-(+)-Trehalose dihydrate]	1.12
CC1(C)SC2CC(=O)N2C1C(=O)OCOC(=O)C1N2C(=O)C(NC(=O)C(N)c3ccccc3)C2S(=O)(=O)C1(C)C.Cc1ccc(S(=O)(=O)O)cc1 (stereo not given) [Sultamicillin Tosylate]	0.824
CCN(CC)CCNC(=O)c1cc(Cl)c(N)cc1OC [Metoclopramide]	0.969
CC(C)COCC(CN(Cc1ccccc1)c1ccccc1)N1CCCC1.Cl.O (stereo not given) [Bepridil hydrochloride]	0.697
CCOC(=O)c1ccc(N)cc1.Cl [Benzocaine hydrochloride]	0.603
Cl.Nc1c2c(nc3ccccc13)CCCC2 [Tacrine HCl]	1.08
CCCC1CC(C(=O)NC(C(C)Cl)C2OC(SC)C(O)C(O)C2O)N(C)C1.Cl (stereo not given) [Clindamycin HCl]	0.989
O=C(O)c1ccccc1C(=O)Nc1ccc(S(=O)(=O)Nc2nccs2)cc1 [Phthalylsulfathiazole]	0.698
NS(=O)(=O)c1cc(C2(O)NC(=O)c3ccccc32)ccc1Cl (stereo not given) [Chlorthalidone]	1.24
Clc1ccc(COC(Cn2ccnc2)c2ccc(Cl)cc2Cl)c(Cl)c1 (stereo not given) [Miconazole]	0.535
CC(C)OC(=O)OCOP(=O)(COC(C)Cn1cnc2c(N)ncnc21)OCOC(=O)OC(C)C.O=C(O)/C=C/C(=O)O (stereo not given) [Tenofovir Disoproxil Fumarate]	0.633
Nc1ccc(S(=O)(=O)Nc2ccccn2)cc1 [Sulfapyridine]	0.764

SMILES	NF-kB reporter
C=CCc1ccc(O)c(-c2cc(CC=C)ccc2O)c1 [Magnolol]	0.532
NS(=O)(=O)c1cc(Cl)c(Cl)c(S(N)(=O)=O)c1 [Dichlorphenamide (Diclofenamide)]	0.781
CCCCCc1ccc(C)cc1O [Amylmetacresol]	0.787
CC(C)N(CCCCOCC(=O)NS(C)(=O)=O)c1cnc(-c2ccccc2)c(-c2ccccc2)n1 [Selexipag]	0.531
CC(CCC(=O)O)C1CCC2C3CC(O)C4CC(O)CCC4(C)C3CCC12C (stereo not given) [Hyodeoxycholic acid (HDCA)]	0.982
CC(OC1OCCN(Cc2n[nH]c(=O)[nH]2)C1c1ccc(F)cc1)c1cc(C(F)(F)F)cc(C(F)(F)F)c1 (stereo not given) [Aprepitant]	0.455
CCOC(=O)/C=C(C)/C=C/C=C(C)/C=C/c1c(C)cc(OC)c(C)c1C [Etretinate]	0.599
C=C1C(CO)C(O)CC1n1cnc2c(=O)nc(N)[nH]c21.O (stereo not given) [Entecavir Hydrate]	0.772
NC(=O)c1cccnc1 [Nicotinamide (Vitamin B3)]	0.882
O=P(O)(O)OC(Cn1cncn1)(Cn1cncn1)c1ccc(F)cc1F [Fosfluconazole]	0.674
Cl.N=C(N)NC(=N)N1CCOCC1 [Moroxydine HCl]	0.734
CC(CN1CC(=O)NC(=O)C1)N1CC(=O)NC(=O)C1 (stereo not given) [Dexrazoxane]	1.14
CCCc1nn(C)c2c(=O)[nH]c(-c3cc(S(=O)(=O)N4CCN(C)CC4)ccc3OCC)nc12.O=C(O)CC(O)(CC(=O)O)C(=O)O [Sildenafil Citrate]	0.782
CCC(C)CCCCC(=O)NC(CCN)C(=O)NC(C(=O)NC(CCN)C(=O)NC1CCNC(=O)C(C(C)O)NC(=O)C(CCN)NC(=O)C(CCN)NC(=O)C(CC(C)C)NC(=O)C(Cc2ccccc2)NC(=O)C(CCN)NC1=O)C(C)O.O=S(=O)(O)O (stereo not given) [Polymyxin B sulphate]	0.912
CC(C)C(NC(=O)C(CC(=O)O)NC(=O)C(CCCCN)NC(=O)C(N)CCCNC(=N)N)C(=O)NC(Cc1ccc(O)cc1)C(=O)O (stereo not given) [Thymopentin]	0.909
C[N+](C)(CCOc1ccccc1)Cc1ccccc1.O=C([O-])c1cc2ccccc2cc1O [Bephenium Hydroxynaphthoate]	0.884
COC1CC2CCC(C)C(O)(O2)C(=O)C(=O)N2CCCCC2C(=O)OC(C(C)CC2CCC(n3cnnn3)C(OC)C2)CC(=O)C(C)/C=C(\C)C(O)C(OC)C(=O)C(C)CC(C)/C=C/C=C/C=C/1C (stereo not given) [Zotarolimus(ABT-578)]	1.27
COCCCN1CCC(NC(=O)c2cc(Cl)c(N)c3c2OCC3)CC1 [Prucalopride]	0.611
CSc1nc2cc(Oc3cccc(Cl)c3Cl)c(Cl)cc2[nH]1 [Triclabendazole]	0.654
Cc1cc(N2CCN(C3CNC(C(=O)N4CCSC4)C3)CC2)n(-c2ccccc2)n1 (stereo not given) [Teneligliptin hydrobromide]	0.986

— the supplement of paper PMC9174493
